From the supplement of paper PMC3334620
Whole data set: some 33,000 sequences, median “E-score (-0.5 to 0.5)” near -0.013, cut for the highest 2% near 0.3. The list shows a part of the results.

biological target: T1, Msn1 (UniProt P22148); assay: PBM E-score (8-mer binding enrichment) (E-score (-0.5 to 0.5)); higher = stronger / more preferred TF binding; most listed sequences are background and not binding sites; conditions: protein concentration: 200 nM; construct: GST-full length
T1 sequence: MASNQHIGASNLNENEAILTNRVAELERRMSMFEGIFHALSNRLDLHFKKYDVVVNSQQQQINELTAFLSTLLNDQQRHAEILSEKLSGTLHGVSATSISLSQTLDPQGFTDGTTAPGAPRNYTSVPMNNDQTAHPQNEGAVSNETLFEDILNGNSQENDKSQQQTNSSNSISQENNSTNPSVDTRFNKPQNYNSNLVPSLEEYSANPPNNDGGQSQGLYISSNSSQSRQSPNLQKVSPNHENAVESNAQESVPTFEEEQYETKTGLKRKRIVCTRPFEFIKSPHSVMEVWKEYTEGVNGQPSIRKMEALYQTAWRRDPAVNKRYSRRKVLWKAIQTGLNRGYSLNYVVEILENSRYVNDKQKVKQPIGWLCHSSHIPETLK
Experimental: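 Universal 'all 10-mer' protein binding microarrays (Agilent AMADID 015681) probed with GST-tagged S. cerevisiae TFs (full-length or DBD) made by in vitro transcription/translation (PURExpress), about 100-200 nM. Bound TF was detected with fluorescent anti-GST. Each ungapped 8-mer (which stands for itself and its reverse complement) is scored by the PBM enrichment score (E-score), a modified Wilcoxon-Mann-Whitney statistic from -0.5 to +0.5, computed with the Universal PBM Analysis Suite. Scale: above 0.35 generally sequence-specific binding.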

Row | Sequence | PBM E-score
1 | CGGAGATC | -0.037
2 | CAACTCTA | 0.152
3 | CGGACGGC | 0.0619
4 | AGTTCGCC | 0.00171
5 | ATGTGGCA | 0.00204
6 | AATGCTAG | -0.0942
7 | AAGCGATA | -0.098
8 | AAGTAATG | 0.155
9 | CCGACCTC | 0.037
10 | TGTGGGAA | -0.163
11 | CTCAGACA | 0.317
12 | AATCATTG | 0.0726
13 | AGCCTGAT | 0.0744
14 | ATACGCAC | -0.058
15 | ATCGTCCA | -0.0991
16 | GGCGTCGA | 0.0944
17 | ACTAATGC | 0.178
18 | AAGAACTG | -0.0361
19 | ACGCCGTC | 0.0507
20 | GGATTTAC | 0.0787
21 | CCCCACGG | -0.321
22 | GAATCTCA | -0.11
23 | GAAGGTAA | -0.0079
24 | CTCAGATC | 0.0872
25 | ATATCCTA | 0.0467

Row | Sequence | PBM E-score
26 | ACGTGCGG | 0.041
27 | CTCTTCTA | -0.0621
28 | CACTATAG | 0.115
29 | GAGAAGGA | -0.27
30 | AGCTACTC | -0.202
31 | GCTACATA | 0.0565
32 | CCACGACC | -0.268
33 | CGGTCATC | -0.116
34 | AGCCACTA | -0.0424
35 | CACATTAC | 0.0152
36 | AAAATGGG | 0.182
37 | AGCTCGGC | 0.0546
38 | AGTCCAAA | 0.214
39 | ATTGTTGC | 0.0748
40 | ACTTCAAT | 0.0828
41 | CACCCGAC | 0.0109
42 | CTGGCGTC | -0.176
43 | CCTTTTCA | 0.072
44 | AAGCGCCA | -0.303
45 | ATTCCCTA | -0.0665
46 | AATAGTCT | 0.0101
47 | AGGCCACT | -0.264
48 | TCGCAGAA | -0.0578
49 | ACAGTTTC | 0.0802
50 | TACCAAGA | 0.0729

Row | Sequence | PBM E-score
51 | ATGTCGGC | 0.121
52 | AACTGCCC | -0.105
53 | GCAGTTGA | 0.0439
54 | CCCCAGCA | -0.218
55 | CCAAAACG | -0.0791
56 | CCACAGGA | -0.0854
57 | AAGAGCCC | -0.133
58 | TACACCAA | -0.0113
59 | AGATGTCA | 0.309
60 | ACGTACAC | 0.186
61 | TATTATAA | 0.214
62 | AAAGGGCT | -0.0283
63 | ACGCGCGT | 0.236
64 | AGCCTCGG | -0.153
65 | GGCTAAGA | 0.0666
66 | AGCGCCGG | -0.0505
67 | AACCAGTT | 0.0337
68 | AGACATTG | 0.402
69 | ACGGAGTA | 0.094
70 | TACTGAAA | 0.155
71 | GCCCCGAC | -0.0904
72 | CGTACACC | -0.0293
73 | AAGCTCCC | -0.256
74 | GGTTATGA | -0.0333
75 | GGTGATCA | -0.123

Row | Sequence | PBM E-score
76 | CAGGCTCA | -0.0362
77 | ACTCGCAG | -0.138
78 | TTATAAAA | 0.288
79 | GAACTGTC | 0.0776
80 | CGAACTCG | -0.00874
81 | AGGCGATG | -0.136
82 | GAGAGGAC | 0.0249
83 | CCTCAGCA | -0.159
84 | CCGTCGTA | 0.031
85 | CCTTAGAG | -0.174
86 | AACTCCCC | -0.152
87 | TCTACTCA | -0.163
88 | CCTATTCA | -0.0902
89 | CACTTGGC | -0.113
90 | CCGTAATC | 0.0367
91 | AAGACCCT | -0.134
92 | AAGGACCC | -0.0634
93 | ACGAGATA | 0.13
94 | GAAAATCC | 0.102
95 | GTATGGAC | 0.335
96 | GCGCACGA | -0.0418
97 | GGATATCA | -0.043
98 | TCTCCACA | -0.0349
99 | CACTGCGG | -0.0628
100 | CAGAGGCC | -0.33

Row | Sequence | PBM E-score
101 | AACAATGC | 0.0219
102 | CTGAGTAC | -0.0547
103 | GCTCGGCA | -0.13
104 | CGTCTAAA | -0.0424
105 | CCGGCATA | 0.054
106 | GGTGCGAC | -0.168
107 | CAATCTAC | -0.26
108 | GCTCAATA | -0.00623
109 | CCAGATAC | -0.0938
110 | AGGCCTAG | -0.187
111 | AGTTCAAA | -0.0504
112 | AACCCTAT | 0.0774
113 | CAGAATAA | 0.0293
114 | ATAAATAG | 0.0654
115 | CTGCAGAC | 0.135
116 | GCATTATA | 0.0347
117 | AAGTTCGC | 0.0268
118 | ACTGCCCC | -0.102
119 | GGAATGAA | 0.0811
120 | AAGTACAT | 0.356
121 | TCAGTAGA | 0.143
122 | TCCTGTCA | 0.049
123 | CTAGGAAG | 0.00053
124 | CACCCGTG | -0.213
125 | CGTGGTTC | -0.111

Row | Sequence | PBM E-score
126 | AATTCCCC | -0.173
127 | CTTTAGAC | 0.0689
128 | GTCTATTA | -0.0806
129 | CAATGTAC | 0.195
130 | GGATCAAC | 0.0032
131 | GATGACTA | -0.0556
132 | ATACTAGC | 0.144
133 | AACGTTAA | 0.137
134 | ATTAGGAA | -0.00879
135 | AGCGGACT | -0.229
136 | GATTTCCC | 0.0168
137 | CGGCTAAC | -0.0264
138 | ATTTACAC | -0.168
139 | CCCCATTA | -0.181
140 | GAATGTAC | 0.342
141 | CCGGCCAG | -0.0305
142 | GATAGAAC | 0.0707
143 | ATTGCTGA | 0.0857
144 | AGATCTTC | -0.0799
145 | ATCCGGAC | 0.297
146 | AAGAACGC | 0.0215
147 | CTCGAGCC | -0.128
148 | ATTGGTTG | -0.0366
149 | ATAAAAAT | 0.231
150 | CTGTAATA | 0.0133

Row | Sequence | PBM E-score
151 | CCCGGGGA | -0.166
152 | AATATCAA | 0.0702
153 | AGCTTGGA | -0.105
154 | ACAGGTCC | -0.155
155 | TAACACAA | 0.0505
156 | AGACAAGA | 0.3
157 | CGGTAGAC | 0.0116
158 | AACGTCCT | 0.139
159 | AATTGCGA | 0.00719
160 | GCTGCCGA | -0.216
161 | CCGCCTAA | -0.0211
162 | GTACTCTA | -0.132
163 | GAACACTC | -0.0457
164 | CTTTCGCC | -0.122
165 | ACAACGCT | -0.0576
166 | AGTAGGTA | 0.106
167 | GAAAGTTC | -0.0389
168 | GATCGAAA | 0.0195
169 | GAAGATTC | 0.0393
170 | AAGAGTTC | -0.152
171 | TCCTTCGA | 0.11
172 | ATAAGGTA | -0.0641
